The values below come from paper PMC12136788.

T1: UNK ZnF1-3 (human, UniProt Q9C0B0 31-174)
T1 sequence: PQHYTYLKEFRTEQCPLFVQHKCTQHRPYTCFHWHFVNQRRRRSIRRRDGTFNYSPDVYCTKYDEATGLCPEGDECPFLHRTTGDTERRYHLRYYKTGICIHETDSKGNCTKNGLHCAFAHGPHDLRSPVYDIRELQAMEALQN

B1: 28706049_28706169_187_CDS_ENSG00000108582_ENST00000225719|human|control|control (ssRNA)
RNA: GGGAGUUCUACAGUCCGACGAUCGCGGUCGAACUGGCCCUCGGCCGCCUCGGCGCCCGCGCUCGUAGUUGUGGUAGUCGCCUCCGCCUUCUUGAUGUGAGCCGCCCGGGCCGAGCUCCCCAGCAGCAGCAGGCACAUGAGCAACAACAGAGGAUUGAGCAUCA
B2: 90049698_90049818_86_3pUTR_ENSG00000070961_ENST00000261173|human|control|control (ssRNA)
RNA: GGGAGUUCUACAGUCCGACGAUCAAAAGAAUUUAAUUUUCACUUGAUGUAUUUCCAAGAUGAAAAUCUUUUAAGUAUGAAAAUCUUUCUUAAACCAAACACUCAUUGUAUGACUUUGUAAAGCAGCAUCAGCAGCAACAUUUCCAACAGAGGAUUGAGCAUCA
B3: 158643113_158646124_607_CDS_ENSMUSG00000027655_ENSMUST00000109478|mouse|control|control (ssRNA)
RNA: GGGAGUUCUACAGUCCGACGAUCAAUCUUCUUCAGCAAGCCAAUGGCAAUGUCCGUGUACAAGGUCCUCUCGUGGGCUUCAUCCAGCAUGAUGACACUAUAUUUUGUUAACAGCGGAUCCACCAUCAUUUCUCUGACCAGCAUCAACAGAGGAUUGAGCAUCA
B4: chr17:42882304:42882305:-_ENSG00000182963_ENST00000426548|hu_hu|FALSE|FALSE (ssRNA)
RNA: GGGAGUUCUACAGUCCGACGAUCCUUGUAGGCGAUCUUAGCAUUGGACAGUUCGGUGUACUGGAUUUGAUCUGGUUUGACAGCAAUGUUAUAGCCAGGGGGAGCAGAUGGUGUAUUCCAAGUGAAAGGAUAAUUAUAAGCACCCAACAGAGGAUUGAGCAUCA
B5: 32201165_32260576_2418_3pUTR_ENSMUSG00000029765_ENSMUST00000115096|mouse|control|control (ssRNA)
RNA: GGGAGUUCUACAGUCCGACGAUCUAAGCUGCCUUUCUGACAUGAUGUAGAGUUGCUCGUGGUCCUUGGAAAAGGCCAUGUCCCGGAGGACUGGUCCUGAGUCCACCACCUGCACAGUCUCAUAUUGGAGGGCAUUUCCCUUGGCAACAGAGGAUUGAGCAUCA
B6: chr2:32089778:32089779:+_ENSMUSG00000039262_ENSMUST00000036691|mus_hu|FALSE|FALSE (ssRNA)
RNA: GGGAGUUCUACAGUCCGACGAUCUAAACAAGCUGCACAUUACACCUCUAGCCAUCGUCUGCCCUUUCAAAUAUCUGGUCUACAUGGAAAGACAAAGAGGAAAGGCCAAAACAUAAACAAAAGGAAACAAAAACAAAACACAACCAACAGAGGAUUGAGCAUCA
B7: 51717800_51717920_1867_CDS_ENSMUSG00000047085_ENSMUST00000058667|mouse|control|control (ssRNA)
RNA: GGGAGUUCUACAGUCCGACGAUCGAUCUCCACAGUGCGCGUGGGCCCGUGGUGCUUGUGCAGCUGGUGCUGCUUGCGCAGCUUGUAGAAGGCCACCAGCAUCACGGCGGCCAUGAAGGUGAUGGCCACGAAGCAGCCGAUGAUCAACAGAGGAUUGAGCAUCA
B8: chr1:137281999:137282000:-_ENSMUSG00000041879_ENSMUST00000161189|mus_hu|FALSE|FALSE (ssRNA)
RNA: GGGAGUUCUACAGUCCGACGAUCUUAGAUGCCGAUGGUCUGUAGAACUCGCCUCUCAUUGUCAUUAAGGUGGCCUGAAAACAUUAUGUAGCAGGGCUGCUGAGCAAACUGGCAGAGGAAAUCUGUGAGAUAUGCCUGCAGAUCCAACAGAGGAUUGAGCAUCA
B9: 19970420_19970540_2860_CDS_ENSG00000166833_ENST00000396085|human|control|control (ssRNA)
RNA: GGGAGUUCUACAGUCCGACGAUCCAGGUCCAUCUCAUCUCCUGCCUUGUCUGAGACGUCCACAUGGCAGACACUACUGCCCCGGGAGGCCAGCUGCCUUCUCAGAGGGGCGGAGUACACAUAGCGACCUGACUCAGUGUUGAUCAACAGAGGAUUGAGCAUCA
B10: 58046993_58047113_931_CDS_ENSMUSG00000051243_ENSMUST00000114144|mouse|control|control (ssRNA)
RNA: GGGAGUUCUACAGUCCGACGAUCUUCGGCGACGCAAUGUAACAUGAAAGCCAAGCCUGCGCGCAGAGGGGUGCCAGGUGCCUCAGGCGGCGGCUCUGCGCUCAGACGCACGCUGGGGGGUGCGCAGGGCAGGGCGGGCAGGCGCAACAGAGGAUUGAGCAUCA
B11: 74425765_74434846_86_CDS_ENSG00000065911_ENST00000470592|human|control|control (ssRNA)
RNA: GGGAGUUCUACAGUCCGACGAUCGUCUCACUGUUGAUUCCGAACUGCCGCGAGGUGGAAAGGGCGAAGGCGAAGGGAGCAGCUGUGCGCGGGCUGCAGCAGCCGGGCAGCCAAAGCAGACAUUAGAGAAGUCGCAGCCAUAGACAACAGAGGAUUGAGCAUCA
B12: 52478818_52478938_2217_CDS_ENSMUSG00000028312_ENSMUST00000117280|mouse|control|control (ssRNA)
RNA: GGGAGUUCUACAGUCCGACGAUCUUCAGCAACAUUUUUAAGACCUGCUAACUCCUCUUCUAGAGCGCGCAGUUCAUUCUCCUUGGUCCUCAGCUCAUCUUGAACAUCUUUGACUUCUUGAAACUUGGUUAAAAUCGAAGCUGCCAACAGAGGAUUGAGCAUCA
B13: chr1:163117276:163117277:-_ENSG00000143248_ENST00000313961|hu_hu|FALSE|FALSE (ssRNA)
RNA: GGGAGUUCUACAGUCCGACGAUCGUCAAAGCUGCUCAGGGAAGGUUCCACCAGGUUCUUCAUUGUGAUGUCCUUAGUGAAGUGGUCAAUAUUCACCUCUUUAGGAGCCUCCGUUUGAAUGAAUUCUUCAUAAAUUUGCUUUGCCAACAGAGGAUUGAGCAUCA
B14: chr11:18536319:18536320:-_ENSG00000074319_ENST00000251968|perfect_dup|FALSE|FALSE (ssRNA)
RNA: GGGAGUUCUACAGUCCGACGAUCAAGAUAUAUCUUCCCAUUUGCAUCAACAUGCUUUCCUGUUUUAAUAGUCAUUGAACUAGUAGGCUUAACAAAACAGAUAGGGGGAUUAUAUGGGUAUGUGUCCAGUAGCCAUAGGCAUAUCAACAGAGGAUUGAGCAUCA

This is one part of the list.

The test addresses T1, UNK ZnF1-3. Briefly: nsRBNS (natural sequence RNA bind-n-seq); RBNS binding buffer (assumed for nsRBNS): 25 mM Tris pH 7.5, 150 mM KCl, 3 mM MgCl2, 0.01% Triton X-100, 500 ug/ml BSA, 20 U/ml SUPERase-In, 4 C; UNK is unkempt and MSI1 is Musashi-1; names of the RNAs are library labels; protein concentration not given here; high values mean tight binding.
The molecule B1 had a binding signal of 1.03 enrichment R.

In the case of B2, the binding signal came out at 1.01 enrichment R.

In turn, B3 had a binding signal of 0.993 enrichment R.

On to B4, for which the binding signal was 1.2 enrichment R.

B5 returned a binding signal of 0.795 enrichment R.

With B6, the binding signal is 2.59 enrichment R.

As to B7, the binding signal worked out at 0.571 enrichment R.

Consider B8, for which the binding signal was 0.981 enrichment R.

B9 gave a binding signal of 0.705 enrichment R.

B10 returned a binding signal of 0.874 enrichment R.

B11 came in with a binding signal of 1.49 enrichment R.

B12 registered a binding signal of 0.698 enrichment R.

The molecule B13 had a binding signal of 0.967 enrichment R.

B14 gave a binding signal of 0.683 enrichment R.
